Patent US9587005B2 (priority 2010, dated 2017)
Where two headings read alike, the source gives them in different places. At least one peptide structure holds a part that was inferred or is arguable (an end, a ring closure or a residue). For at least one compound, name, drawing or mass did not settle the structure. *1 amine or outer side, *2 acyl side, *3 side chain or, on linkers, in order; H or OH if unused. Where a SMILES comes first, the peptide text is derived from it. Bridges are numbered along the chain shown (N, C = ends). Roman numbers before positions name the chains, in order. Where no end group is shown, it is not given here. Side-chain parts run from the residue outwards. [ ]: non-standard residue; d: D form. The star is where a group is joined. X9 = CCCCCCCCCCCCCCCC(=O)N[C@@H](CCC(=O)N[C@@H](CCCCNC(=O)CC[C@H](NC(=O)CCCCCCC)C(=O)O)C(=O)*)C(=O)O; X8 = CCCCCCCCCCCCCCCC(=O)N[C@@H](CCC(=O)N[C@@H](CSSC[C@H](N)C(=O)[*:1])C(=O)[*:2])C(=O)O; Phe(4-NH2) = Nc1ccc(C[C@H](N)C(=O)O)cc1; γGlu = O=C(O)[C@H](CCC(=O)[*:2])N[*:1]; Palmitoyl = CCCCCCCCCCCCCCCC(=O)*; PEG2 = NCCOCCOCCC(=O)O; Aib = CC(C)(N)C(=O)O

What was measured:
Assay type in all cases: cell-based
glucagon receptor = target: T1, glucagon receptor (Homo sapiens, UniProt P47871); assay: cAMP induction, firefly luciferase reporter assay in HEK293 cells co-transfected with glucagon receptor
T1 construct: expressed in transfected cells; host or cells: HEK293
T1 sequence (P47871 26-477): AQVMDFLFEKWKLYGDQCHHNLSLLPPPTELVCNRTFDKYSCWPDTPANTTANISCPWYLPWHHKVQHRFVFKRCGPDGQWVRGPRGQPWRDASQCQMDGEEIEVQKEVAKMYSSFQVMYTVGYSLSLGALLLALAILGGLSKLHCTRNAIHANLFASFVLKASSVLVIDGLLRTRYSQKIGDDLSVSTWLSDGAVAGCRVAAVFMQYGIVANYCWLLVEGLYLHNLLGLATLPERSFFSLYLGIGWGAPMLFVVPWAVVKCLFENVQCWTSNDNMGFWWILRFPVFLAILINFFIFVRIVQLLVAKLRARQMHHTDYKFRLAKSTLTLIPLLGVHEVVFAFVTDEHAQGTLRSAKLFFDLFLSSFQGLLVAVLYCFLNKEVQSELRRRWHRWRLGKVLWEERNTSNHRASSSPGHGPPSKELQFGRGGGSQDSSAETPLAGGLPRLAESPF
From the text: (§1) This example describes an exemplary method of testing the biological activity of the peptides of the present disclosures, which method involves assaying cAMP synthesis.

GLP-1 receptor = target: T2, GLP-1 receptor (Homo sapiens, UniProt P43220); assay: cAMP induction, firefly luciferase reporter assay in HEK293 cells co-transfected with GLP-1 receptor
T2 construct: expressed in transfected cells; host or cells: HEK293
T2 sequence (P43220 24-463): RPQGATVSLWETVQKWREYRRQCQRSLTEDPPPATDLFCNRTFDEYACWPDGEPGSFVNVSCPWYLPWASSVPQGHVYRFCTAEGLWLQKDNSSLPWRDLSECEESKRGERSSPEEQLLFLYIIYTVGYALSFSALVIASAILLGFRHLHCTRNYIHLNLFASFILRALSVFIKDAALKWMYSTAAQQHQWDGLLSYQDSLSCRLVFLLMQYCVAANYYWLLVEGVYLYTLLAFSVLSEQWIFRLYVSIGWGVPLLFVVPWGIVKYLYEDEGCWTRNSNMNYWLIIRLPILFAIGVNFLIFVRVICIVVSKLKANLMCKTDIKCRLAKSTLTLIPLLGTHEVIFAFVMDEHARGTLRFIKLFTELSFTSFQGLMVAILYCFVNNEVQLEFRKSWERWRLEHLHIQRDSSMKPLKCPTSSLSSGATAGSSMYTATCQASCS
From the text: as §1

GIP receptor = target: T3, GIP receptor (Homo sapiens, UniProt P48546); assay: cAMP induction, firefly luciferase reporter assay in HEK293 cells co-transfected with GIP receptor
T3 sequence (P48546 22-466): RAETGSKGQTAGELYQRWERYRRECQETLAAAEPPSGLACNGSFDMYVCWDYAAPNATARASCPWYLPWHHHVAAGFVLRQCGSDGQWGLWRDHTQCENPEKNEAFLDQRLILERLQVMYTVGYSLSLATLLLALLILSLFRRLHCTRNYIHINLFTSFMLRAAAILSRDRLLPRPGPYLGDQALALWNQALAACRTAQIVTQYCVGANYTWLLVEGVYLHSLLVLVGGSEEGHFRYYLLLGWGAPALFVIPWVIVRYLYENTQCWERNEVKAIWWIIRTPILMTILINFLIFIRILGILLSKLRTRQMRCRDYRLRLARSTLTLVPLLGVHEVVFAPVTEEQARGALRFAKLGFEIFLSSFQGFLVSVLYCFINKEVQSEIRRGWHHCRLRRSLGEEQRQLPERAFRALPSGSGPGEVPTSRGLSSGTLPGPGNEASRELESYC

[1] = read-out: EC50 (nM) at Glucagon Receptor, Table 4, Example 9, composite of multiple different activity assays
[2] = read-out: EC50 (nM) at GLP-1 Receptor, Table 4, Example 9, composite of multiple different activity assays
[3] = read-out: Glucagon Receptor EC50, Table 10, Example 16
[4] = read-out: GLP-1 Receptor EC50, Table 10, Example 16
[5] = Table 10, Example 16, read-out: GIP-1 Receptor EC50

Work on `CCCCCCCCCCCCCCCC(=O)N[C@@H](CCC(=O)N[C@@H](CCC(=O)NCCCC[C@H](NC(=O)[C@H](CC(=O)O)NC(=O)[C@H](CO)NC(=O)[C@@H](NC(=O)[C@H](Cc1ccccc1)NC(=O)[C@@H](NC(=O)CNC(=O)[C@H](CCC(N)=O)NC(=O)C(C)(C)NC(=O)[C@@H](N)Cc1c[nH]cn1)[C@@H](C)O)[C@@H](C)O)C(=O)N[C@@H](CO)C(=O)N[C@@H](CCCCN)C(=O)N[C@@H](Cc1ccc(O)cc1)C(=O)N[C@@H](CC(C)C)C(=O)N[C@@H](CC(=O)O)C(=O)NC(C)(C)C(=O)N[C@@H](CCCNC(=N)N)C(=O)N[C@@H](C)C(=O)N[C@@H](C)C(=O)N[C@@H](CCC(N)=O)C(=O)N[C@@H](CC(=O)O)C(=O)N[C@@H](Cc1ccccc1)C(=O)N[C@H](C(=O)N[C@@H](CCC(N)=O)C(=O)N[C@@H](Cc1c[nH]c2ccccc12)C(=O)N[C@@H](CC(C)C)C(=O)N[C@H](C(=O)N[C@@H](CCCCN)C(=O)NCC(=O)NCC(=O)N1CCC[C@H]1C(=O)N[C@@H](CO)C(=O)N[C@@H](CO)C(=O)NCC(=O)N[C@@H](C)C(=O)N1CCC[C@H]1C(=O)N1CCC[C@H]1C(=O)N1CCC[C@H]1C(=O)N[C@@H](CO)C(N)=O)C(C)C)C(C)C)C(=O)O)C(=O)O` [compound 35] (H-H[Aib]QGTFTSDK([γGlu-γGlu-Palmitoyl])SKYLD[Aib]RAAQDFVQWLVKGGPSSGAPPPS-NH2; N-terminus assumed) yielded an EC50 (glucagon receptor; [1]) of 0.011 nM and an EC50 (GLP-1 receptor; [2]) of 0.005 nM.
For “I: H[Aib]QGTFTSDYSKYLDERAAQDFVQWLLDGGPSSGAPPPSKG-NH2 / II: H[Aib]QGTFTSDYSKYLDERAAQDFVQWLLDGGPSSGAPPPSKG-NH2 (linker I:40-II:40 via X8) [SEQ ID NO: 170]”, the EC50 (glucagon receptor; read-out: Glucagon Receptor EC50, Table 14, Example 22) was 0.003 nM and the EC50 (GLP-1 receptor; read-out: GLP-1 Receptor EC50, Table 14, Example 22) was 0.001 nM.
Work on “H[Aib]QGTFTSDYSKYLDERAAQDFVQWLLDGGPSSGAPPPSK([PEG2-γGlu-Palmitoyl])G-NH2 [SEQ ID NO: 157]” yielded an EC50 (glucagon receptor; read-out: Glucagon Receptor EC50, Table 11, Example 18) of 0.011 nM, an EC50 (GLP-1 receptor; read-out: GLP-1 Receptor EC50, Table 11, Example 18) of 0.009 nM and an EC50 (GIP receptor; Table 11, Example 18, read-out: GIP Receptor EC50) of 0.021 nM.
In the case of `CCCCCCCCCCCCCCCC(=O)N[C@@H](CCC(=O)N[C@@H](CCC(=O)NCCCC[C@H](NC(=O)[C@H](CC(=O)O)NC(=O)[C@H](CO)NC(=O)[C@@H](NC(=O)[C@H](Cc1ccccc1)NC(=O)[C@@H](NC(=O)CNC(=O)[C@H](CCC(N)=O)NC(=O)C(C)(C)NC(=O)[C@@H](N)Cc1c[nH]cn1)[C@@H](C)O)[C@@H](C)O)C(=O)N[C@@H](CO)C(=O)N[C@@H](CCCCN)C(=O)N[C@@H](Cc1ccc(O)cc1)C(=O)N[C@@H](CC(C)C)C(=O)N[C@@H](CC(=O)O)C(=O)NC(C)(C)C(=O)N[C@@H](CCCNC(=N)N)C(=O)N[C@@H](C)C(=O)N[C@@H](C)C(=O)N[C@@H](CCC(N)=O)C(=O)N[C@@H](CC(=O)O)C(=O)N[C@@H](Cc1ccccc1)C(=O)N[C@H](C(=O)N[C@@H](CCC(N)=O)C(=O)N[C@@H](Cc1c[nH]c2ccccc12)C(=O)N[C@@H](CC(C)C)C(=O)N[C@@H](CCCCN)C(=O)N[C@@H](CC(=O)O)C(=O)NCC(=O)NCC(=O)N1CCC[C@H]1C(=O)N[C@@H](CO)C(=O)N[C@@H](CO)C(=O)NCC(=O)N[C@@H](C)C(=O)N1CCC[C@H]1C(=O)N1CCC[C@H]1C(=O)N1CCC[C@H]1C(=O)N[C@@H](CO)C(N)=O)C(C)C)C(=O)O)C(=O)O` [compound 36] (H-H[Aib]QGTFTSDK([γGlu-γGlu-Palmitoyl])SKYLD[Aib]RAAQDFVQWLKDGGPSSGAPPPS-NH2; N-terminus assumed), the EC50 (glucagon receptor; [1]) is reported as 0.008 nM and the EC50 (GLP-1 receptor; [2]) is reported as 0.004 nM.
Work on `CCCCCCCCCCCCCCCC(=O)N[C@@H](CCC(=O)N[C@@H](CCC(=O)NCCCC[C@H](NC(=O)[C@H](CC(=O)O)NC(=O)[C@H](CO)NC(=O)[C@@H](NC(=O)[C@H](Cc1ccccc1)NC(=O)[C@@H](NC(=O)CNC(=O)[C@H](CCC(N)=O)NC(=O)C(C)(C)NC(=O)[C@@H](N)Cc1c[nH]cn1)[C@@H](C)O)[C@@H](C)O)C(=O)N[C@@H](CO)C(=O)N[C@@H](CCCCN)C(=O)N[C@@H](Cc1ccc(O)cc1)C(=O)N[C@@H](CC(C)C)C(=O)N[C@@H](CC(=O)O)C(=O)N[C@@H](CCC(=O)O)C(=O)N[C@@H](CCCNC(=N)N)C(=O)N[C@@H](C)C(=O)N[C@@H](C)C(=O)N[C@@H](CCC(N)=O)C(=O)N[C@@H](CC(=O)O)C(=O)N[C@@H](Cc1ccccc1)C(=O)N[C@H](C(=O)N[C@@H](CCC(N)=O)C(=O)N[C@@H](Cc1c[nH]c2ccccc12)C(=O)N[C@@H](CC(C)C)C(=O)N[C@@H](CC(C)C)C(=O)N[C@@H](CC(=O)O)C(=O)NCC(=O)NCC(=O)N1CCC[C@H]1C(=O)N[C@@H](CO)C(=O)N[C@@H](CO)C(=O)NCC(=O)N[C@@H](C)C(=O)N1CCC[C@H]1C(=O)N1CCC[C@H]1C(=O)N1CCC[C@H]1C(=O)N[C@@H](CO)C(N)=O)C(C)C)C(=O)O)C(=O)O` [compound 90] yielded an EC50 (GLP-1 receptor; read-out: EC50 (nM) at GLP-1 Receptor, Table 7, Example 13) of 0.0027 nM and an EC50 (GIP receptor; Table 7, Example 13, read-out: EC50 (nM) at GIP Receptor) of 0.017 nM.
With “H-H[Aib]QGTFTSDYSKYLDERAAQDFVQWLLDGGPSSGAPPPSK(Palmitoyl)G-NH2 [SEQ ID NO: 177]” the EC50 (glucagon receptor; [3]) was 0.01 nM, the EC50 (GLP-1 receptor; [4]) was 0.014 nM and the EC50 (GIP receptor; [5]) was 0.021 nM.
Work on `CCCCCCCCCCCCCCCC(=O)N[C@@H](CCC(=O)Nc1ccc(C[C@H](NC(=O)[C@H](CCCCN)NC(=O)[C@H](CO)NC(=O)[C@H](Cc2ccc(O)cc2)NC(=O)[C@H](CC(=O)O)NC(=O)[C@H](CO)NC(=O)[C@@H](NC(=O)[C@H](Cc2ccccc2)NC(=O)[C@@H](NC(=O)CNC(=O)[C@H](CCC(N)=O)NC(=O)C(C)(C)NC(=O)[C@@H](N)Cc2c[nH]cn2)[C@@H](C)O)[C@@H](C)O)C(=O)N[C@@H](CC(C)C)C(=O)N[C@@H](CC(=O)O)C(=O)N[C@@H](CCC(=O)O)C(=O)N[C@@H](CCCNC(=N)N)C(=O)N[C@@H](C)C(=O)N[C@@H](C)C(=O)N[C@@H](CCC(N)=O)C(=O)N[C@@H](CC(=O)O)C(=O)N[C@@H](Cc2ccccc2)C(=O)N[C@H](C(=O)N[C@@H](CCC(N)=O)C(=O)N[C@@H](Cc2c[nH]c3ccccc23)C(=O)N[C@@H](CC(C)C)C(=O)N[C@@H](CC(C)C)C(=O)N[C@@H](CC(=O)O)C(=O)NCC(=O)NCC(=O)N2CCC[C@H]2C(=O)N[C@@H](CO)C(=O)N[C@@H](CO)C(=O)NCC(=O)N[C@@H](C)C(=O)N2CCC[C@H]2C(=O)N2CCC[C@H]2C(=O)N2CCC[C@H]2C(=O)N[C@@H](CO)C(N)=O)C(C)C)cc1)C(=O)O` [SEQ ID NO: 149] (H-H[Aib]QGTFTSDYSK[Phe(4-NH2)]([γGlu-Palmitoyl])LDERAAQDFVQWLLDGGPSSGAPPPS-NH2; N-terminus assumed) yielded an EC50 (glucagon receptor; [3]) of 0.011 nM, an EC50 (GLP-1 receptor; [4]) of 0.007 nM and an EC50 (GIP receptor; [5]) of 0.395 nM.
For “H[Aib]QGTFTSDYSKYLDERAAQDFVQWLLDGGPSSGAPPPSK(X9)G-NH2 [SEQ ID NO: 210]”, the EC50 (glucagon receptor; read-out: EC50 (nM) at glucagon receptor, Table 16, Example 24) was 0.01 nM and the EC50 (GLP-1 receptor; read-out: EC50 (nM) at GLP-1 receptor, Table 16, Example 24) was 0.005 nM.
